This is an account of results in paper PMC12748135.

By UniProt entry, the sequences of proteins in these tests, tags left out. Where a name states a change or a piece, a line headed by the entry shows the natural chain unless it says otherwise.
UniProt P53350: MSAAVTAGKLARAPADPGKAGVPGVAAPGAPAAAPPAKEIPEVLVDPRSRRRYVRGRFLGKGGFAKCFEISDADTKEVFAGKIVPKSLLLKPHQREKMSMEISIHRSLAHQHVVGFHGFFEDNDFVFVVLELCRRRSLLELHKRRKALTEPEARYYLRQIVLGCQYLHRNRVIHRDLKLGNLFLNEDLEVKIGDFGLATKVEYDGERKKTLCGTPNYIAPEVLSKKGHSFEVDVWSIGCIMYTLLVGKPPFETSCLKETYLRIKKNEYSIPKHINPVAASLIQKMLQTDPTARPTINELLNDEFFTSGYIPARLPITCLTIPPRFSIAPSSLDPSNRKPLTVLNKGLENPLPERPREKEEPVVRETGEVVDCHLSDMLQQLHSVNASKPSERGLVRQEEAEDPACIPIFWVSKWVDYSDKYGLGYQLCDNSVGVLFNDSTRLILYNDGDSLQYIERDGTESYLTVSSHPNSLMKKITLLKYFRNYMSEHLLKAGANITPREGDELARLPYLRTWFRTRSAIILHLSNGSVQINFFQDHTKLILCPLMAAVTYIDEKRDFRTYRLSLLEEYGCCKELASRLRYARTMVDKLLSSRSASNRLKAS

One assay addresses GST-TRIM47 (human) (UniProt Q96LD4). As to the kind of experiment: pull-down; purified GST-TRIM47 or GST incubated overnight at 4 °C with lysates of transfected HEK293T cells (Flag-PLK1, GFP-PLK1 or GFP-PLK1 deletion mutants); glutathione agarose; immunoblot; only the target purified. A general note: Immunoblotting shows a protein as a band on a membrane.
Assay [1] has as its target TRIM47 (tripartite motif-containing 47), full-length, in pGBKT7 as bait (human) (UniProt Q96LD4). As to the kind of experiment: two-hybrid; yeast two-hybrid system screen combined with bioinformatic analysis (Figure S4); library and constructs not described.
Assay [2] has the same target. Kind of assay: two-hybrid; TRIM47 in pGBKT7 as bait, PLK1 in pGADT7 as prey, Y2HGold yeast; blue colonies on QDO/X/A (SD/-Ade/-His/-Leu/-Trp/X-α-Gal) plates count as interaction.
In assay [3] the target is GFP-PLK1 (full-length) (human) (UniProt P53350). As to the kind of experiment: co-IP; HEK293T cells co-transfected with GFP-PLK1 and Flag-TRIM47 or its deletion mutants, lysed after 24 h; immunoprecipitation with an anti-GFP antibody; immunoblot.
The target of assay [4] is GFP-TRIM47 (full-length, WT) (human) (UniProt Q96LD4). As to the kind of experiment: co-IP; HEK293T cells co-transfected with Flag-PLK1 and GFP-TRIM47 (WT or 1-80 aa); 0.5% Lubrol-Px lysis buffer (50 mM KCl, 2 mM CaCl2, 20% glycerol, 50 mM Tris-HCl pH 7.4), protein G beads, 4 °C; immunoblot.
Assay [5] concerns the target N-terminal GFP-TRIM47 truncation mutant (1-80 aa) (human) (UniProt Q96LD4). The description is as above.
For assay [6], the target named is TRIM47, endogenous in Hep3B cells (human (endogenous in Hep3B)) (UniProt Q96LD4). As to the kind of experiment: co-IP; endogenous proteins in native (primitive) Hep3B cells; 0.5% Lubrol-Px lysis buffer, protein G beads, 4 °C; immunoblot.

No constants are given. Whether binding was seen depends on the method and setting. For some of these results: In cells and extracts the contact can be indirect. Some entries that bind do so weakly or less than the wild type. For some of these results: Tags and fused reporters may be left off the sequences shown.

For the molecule “GFP-PLK1 protein kinase fragment (1-310 aa) (from UniProt P53350 1-310) (domain or fragment)”, the binding entry with GST-TRIM47 (human) is recorded as “binds”. For “PLK1 (polo-like kinase 1), in pGADT7 as prey (from UniProt P53350 1-603)”, the binding result in assay [1] and in assay [2] was “binds” each time. On to “Flag-TRIM47 mutant 1-409 aa (from UniProt Q96LD4 1-409) (domain or fragment)”, for which the binding result in assay [3] is “binds”. As to Flag-PLK1 (from UniProt P53350 1-603), the binding entry (in assay [4]; in assay [5]; in the assay with GST-TRIM47 (human)) was “binds” each time. As for “GFP-PLK1 (full-length) (from UniProt P53350 1-603)”, in the assay with GST-TRIM47 (human), the binding entry is reported as “binds”.

Turning to “PLK1, endogenous in Hep3B cells (from UniProt P53350 1-603)”, the binding entry in assay [6] is recorded as “binds”. As for “Flag-TRIM47 (full-length) (from UniProt Q96LD4 1-638)”, the binding entry in assay [3] is listed as “binds”.

B1: Flag-TRIM47 mutant 410-638 aa (domain or fragment, UniProt Q96LD4 410-638)
chain: STNLLESEAPRDYFLKFAYIVDLDSDTADKFLQLFGTKGVKRVLCPINYPLSPTRFTHCEQVLGEGALDRGTYYWEVEIIEGWVSMGVMAEDFSPQEPYDRGRLGRNAHSCCLQWNGRSFSVWFHGLEAPLPHPFSPTVGVCLEYADRALAFYAVRDGKMSLLRRLKASRPRRGGIPASPIDPFQSRLDSHFAGLFTHRLKPAFFLESVDAHLQIGPLKKSCISVLKRR
Turning to B1, the binding entry in assay [3] was “no binding”.

B2: Flag-TRIM47 mutant 81-409 aa (domain or fragment, UniProt Q96LD4 81-409)
chain: QGSGPGSGPGPAPALAPEPSAPSALPSVPEPSAPCAPEPWPAGEEPVRCDACPEGAALPAALSCLSCLASFCPAHLGPHERSPALRGHRLVPPLRRLEESLCPRHLRPLERYCRAERVCLCEACAAQEHRGHELVPLEQERALQEAEQSKVLSAVEDRMDELGAGIAQSRRTVALIKSAAVAERERVSRLFADAAAALQGFQTQVLGFIEEGEAAMLGRSQGDLRRQEEQRSRLSRARQNLSQVPEADSVSFLQELLALRLALEDGCGPGPGPPRELSFTKSSQAVRAVRDMLAVACVNQWEQLRGPGGNEDGPQKLDSEADAEPQDLE
Consider B2, for which the binding result in assay [3] is on record as “no binding”.

B3: Flag-TRIM47 mutant 177-409 aa (domain or fragment, UniProt Q96LD4 177-409)
chain: LEESLCPRHLRPLERYCRAERVCLCEACAAQEHRGHELVPLEQERALQEAEQSKVLSAVEDRMDELGAGIAQSRRTVALIKSAAVAERERVSRLFADAAAALQGFQTQVLGFIEEGEAAMLGRSQGDLRRQEEQRSRLSRARQNLSQVPEADSVSFLQELLALRLALEDGCGPGPGPPRELSFTKSSQAVRAVRDMLAVACVNQWEQLRGPGGNEDGPQKLDSEADAEPQDLE
Consider B3, for which, in assay [3], the binding entry is on record as “no binding”.
